Measurements taken from patent publication US20250214977A1, “STAT6 INHIBITORS AND USES THEREOF” (Kymera Therapeutics, Inc., priority 2024, published 2025).

Target: T1, biotinylated truncated STAT6 (123-632)-avi (Homo sapiens, UniProt P42226)
T1 sequence (P42226 123-632 limits assumed): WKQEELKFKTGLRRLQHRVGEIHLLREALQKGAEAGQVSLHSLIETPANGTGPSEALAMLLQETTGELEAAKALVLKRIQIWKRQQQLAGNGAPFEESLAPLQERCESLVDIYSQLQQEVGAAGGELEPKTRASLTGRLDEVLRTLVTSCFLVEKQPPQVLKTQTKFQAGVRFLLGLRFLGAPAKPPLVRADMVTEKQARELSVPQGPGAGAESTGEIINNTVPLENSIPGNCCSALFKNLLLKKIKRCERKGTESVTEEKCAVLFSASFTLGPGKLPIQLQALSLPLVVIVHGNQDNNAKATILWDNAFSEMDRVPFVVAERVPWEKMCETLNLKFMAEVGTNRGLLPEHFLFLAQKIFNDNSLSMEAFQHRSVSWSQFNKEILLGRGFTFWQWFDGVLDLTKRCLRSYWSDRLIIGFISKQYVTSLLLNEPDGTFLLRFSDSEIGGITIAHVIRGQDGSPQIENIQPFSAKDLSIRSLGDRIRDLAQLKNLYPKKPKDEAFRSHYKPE
Assay: Homogenous Time-Resolved Fluorescence (HTRF) binding assay
Conditions: 0.15 nM biotinylated truncated STAT6 (123-632)-avi, 20 nM fluorescein-labeled probe

SMILES	IC50 (30 minutes at room temperature)	IC50 (30 minutes room temperature)
CN(C)C(=O)c1cc2cc(C3=CCCN(C(=O)CCc4nc5ccccc5s4)C3)ccc2o1 [Example I-237]	1 to 10 µM	
COc1cc(F)cnc1N1CCN(C(=O)c2cc3c(C4=CCOC4)cc(C4=CCCN(C(=O)CCn5ccnn5)C4)c(F)c3[nH]2)CC1 [Example I-639]	< 0.1 µM	
CN(C)C(=O)c1cc2c(Oc3ccccc3)cc(C3=CCCN(C(=O)CCn4ccnn4)C3)cc2[nH]1 [Example I-1655]		< 0.1 µM
CC1CCCN(C(=O)c2cc3ccc(C4=CCCN(C(=O)CCn5ccnn5)C4)cc3[nH]2)C1 (stereo not drawn) [Example I-126]	1 to 10 µM	
CCn1c(C2=CCCN(C(=O)CCn3ccnn3)C2)cc2cc(C(=O)N3CCN(c4ncc(F)cc4OC)CC3)cc(-c3ccccc3OC)c21 [Example I-734]	< 0.1 µM	
COc1cnc(N2CCN(C(=O)c3cc4c(-c5cnccc5OC)cc(C5=CCCN(C(=O)CCn6ccnn6)C5)c(F)c4[nH]3)CC2)c(OC)c1 [Example I-437]	< 0.1 µM	
COc1ccc(C(F)(F)F)cc1-c1cc(C2=CCCN(C(=O)CCn3ccnn3)C2)cc2[nH]c(C(=O)N(C)C)cc12 [Example I-1664]		< 0.1 µM
CN(C)C(=O)c1cc2ccc(C3=CCCN(C(=O)C4CCN(c5ncccc5C(=O)O)CC4)C3)cc2[nH]1 [Example I-109]	10 to 100 µM	
CCOCc1cc(F)ccc1-c1cc(C2=CCCN(C(=O)CCn3ccnn3)C2)c(F)c2[nH]c(C(=O)N3CCN(c4ncc(F)cc4OC)CC3)cc12 [Example I-1125]	< 0.1 µM	
COc1ccccc1-c1cc(C2=CCCN(C(=O)CCn3ccnn3)C2)c(F)c2[nH]c(C(=O)N3CCN(CC(=O)N4CCOCC4)CC3)cc12 [Example I-1408]		< 0.1 µM
COc1ccccc1-c1cc(C2=CCCN(C(=O)CCn3ccnn3)C2)c(F)c2[nH]c(C(=O)N3CCC(Nc4ncccc4OC)CC3)cc12 [Example I-1441]		< 0.1 µM
CN(C)C(=O)c1cc2cc(C3=CCCN(C(=O)CCn4ccnn4)C3)cc(-c3ccc(CO)cc3)c2o1 [Example I-1609]		< 0.1 µM
COc1ccccc1-c1cc(C2=CCCN(C(=O)CCn3ccnn3)C2)c(F)c2[nH]c(C(=O)N3CCN(c4ncccc4C#N)CC3)cc12 [Example I-328]	< 0.1 µM	
Cc1ccccc1Oc1cc(C2=CCCN(C(=O)CCn3ccnn3)C2)c(F)c2[nH]c(C(=O)N(C)C)cc12 [Example I-1598]		< 0.1 µM
COc1ccccc1-c1cc(C2=CCCN(C(=O)CCn3ccnn3)C2)c(F)c2[nH]c(C(=O)N3CCN(c4c(C)cccc4OC)CC3)cc12 [Example I-913]	0.1 to 1 µM	
COc1ccccc1-c1cc(C2=CCCN(C(=O)CCn3ccnn3)C2)c(F)c2[nH]c(C(=O)N3CCN(c4cnc5nccnc5c4C)CC3)cc12 [Example I-944]	< 0.1 µM	
COc1cc2ncnc(N3CCN(C(=O)c4cc5c(-c6ccccc6OC)cc(C6=CCCN(C(=O)CCn7ccnn7)C6)c(F)c5[nH]4)CC3)c2cc1O [Example I-955]	< 0.1 µM	
CN(C)C(=O)c1cc2cc(C3=CCCN(C(=O)CCn4cnc5ccccc54)C3)ccc2o1 [Example I-265]	10 to 100 µM	
COc1ccccc1-c1cc(C2=CCCN(C(=O)CCn3ccnn3)C2)c(F)c2[nH]c(C(=O)N3CCN(c4cccc5nonc45)CC3)cc12 [Example I-951]	< 0.1 µM	

SMILES	IC50 (30 minutes at room temperature)	IC50 (30 minutes room temperature)
COC(=O)N1CCN(C(=O)c2cc3c(-c4ccccc4OC)cc(C4=CCCN(C(=O)CCn5ccnn5)C4)c(F)c3[nH]2)CC1 [Example I-988]	< 0.1 µM	
COc1ccccc1-c1cc(C2=CCCN(C(=O)CCn3ccnn3)C2)c(F)c2[nH]c(C(=O)N3CCC(Oc4ccccn4)CC3)cc12 [Example I-1401]		< 0.1 µM
COc1ccccc1-c1cc(C2=CCCN(C(=O)CCn3ccnn3)C2)c(F)c2[nH]c(C(=O)N3CCN(c4nccc(C)c4OC)CC3)cc12 [Example I-415]	< 0.1 µM	
COc1ccccc1-c1cc(C2=CCCN(C(=O)CCn3ccnn3)C2)c(F)c2[nH]c(C(=O)N3CCN(c4ncc5ccc(F)cc5n4)CC3)cc12 [Example I-1450]		< 0.1 µM
O=C(CCn1ccnn1)N1CCCC(n2ccc3cc(N4CCCC4=O)ccc32)C1 (stereo not drawn) [Example I-1304]		10 to 100 µM
COc1cc(F)cnc1N1CCN(C(=O)c2cc3c(-c4ccc5c(C)nn(C)c5c4)cc(C4=CCCN(C(=O)CCn5ccnn5)C4)c(F)c3[nH]2)CC1 [Example I-623]	< 0.1 µM	
CCc1ccncc1-c1cc(C2=CCCN(C(C)=O)C2)c(F)c2[nH]c(C(=O)N3Cc4cnn(C)c4C3)cc12 [Example I-702]	10 to 100 µM	
O=C(CCn1ccnn1)N1CCC=C(c2ccc3oc(-c4ccccc4CN4CCOCC4)cc3c2)C1 [Example I-1291]		10 to 100 µM
CN(C)C(=O)c1cc2cc(C3=CCCN(C(=O)CCn4ccnn4)C3)cc(NCc3ccc(C(F)(F)F)nc3)c2o1 [Example I-893]	< 0.1 µM	
CN(C)C(=O)c1cc2cc(C3=CCCN(C(=O)Cc4nc5ccccc5[nH]4)C3)ccc2o1 [Example I-245]	10 to 100 µM	
COc1ccccc1-c1cc(C2=CCCN(C(=O)CCn3ccnn3)C2)c(F)c2[nH]c(C(=O)N3CCc4ncncc4C3)cc12 [Example I-1010]	< 0.1 µM	
COc1ccccc1-c1cc(C2=CCCN(C(=O)CCn3ccnn3)C2)c(F)c2[nH]c(C(=O)N3CCC[C@H]3c3cccnc3)cc12 [Example I-1534]		< 0.1 µM
COc1ccccc1-c1cc(C2=CCCN(C(=O)CCn3ccnn3)C2)c(F)c2[nH]c(C(=O)N3CCN(c4cc(F)c5nccnc5c4)CC3)cc12 [Example I-1448]		< 0.1 µM
CN(C)C(=O)c1cc2ccc(C3=CCCN(C(=O)C4ON=C(c5ccccc5)O4)C3)cc2[nH]1 (stereo not drawn) [Example I-71]	10 to 100 µM	
COc1ccc(S(C)(=O)=O)cc1-c1cc(C2=CCCN(C(=O)CCn3ccnn3)C2)c(F)c2[nH]c(C(=O)N(C)C)cc12 [Example I-1626]		< 0.1 µM
CN(C)C(=O)c1nc2cc(C3=CCCN(C(=O)CCn4ccnn4)C3)ccc2s1 [Example I-192]	10 to 100 µM	
O=C(CCn1ccnn1)N1CCC=C(c2ccc3oc(Oc4ccccn4)cc3c2)C1 [Example I-1309]		10 to 100 µM
O=C(CCn1ccnn1)N1CCC=C(c2ccc3oc(-n4ccccc4=O)cc3c2)C1 [Example I-1682]		0.1 to 1 µM
COc1ccccc1-c1cc(C2=CCCN(C(=O)CCn3ccnn3)C2)c(F)c2[nH]c(C(=O)N3CCCC3c3ccc(C)cc3)cc12 (stereo not drawn) [Example I-1549]		1 to 10 µM

SMILES	IC50 (30 minutes at room temperature)	IC50 (30 minutes room temperature)
O=C(CCn1ccnn1)N1CCC=C(c2ccc3oc(-c4cccc(CCN5CCOCC5)c4)cc3c2)C1 [Example I-1287]		10 to 100 µM
CN(C)C(=O)c1cc2ccc(C3=CCCN(C(=O)c4cc(C#N)ccc4Br)C3)cc2[nH]1 [Example I-144]	0.1 to 1 µM	
CN(C)C(=O)c1cc2cc(C3=CCCN(C(=O)Cc4c[nH]c5ncccc45)C3)ccc2o1 [Example I-309]	10 to 100 µM	
COc1cc(F)cnc1N1CCN(C(=O)c2cc3c(-c4ccc5c(c4)c(C4CC4)nn5C)cc(C4=CCCN(C(=O)CCn5ccnn5)C4)c(F)c3[nH]2)CC1 [Example I-622]	< 0.1 µM	
CCn1ncc2c1CN(C(=O)c1cc(C3=CCCCC3)c3c(c1)cc(C1=CCCN(C(=O)CCn4ccnn4)C1)n3CC1CC1)C2 [Example I-765]	< 0.1 µM	
Cc1nc(CC(=O)N2CCC=C(c3ccc4cc(C(=O)N(C)C)[nH]c4c3)C2)no1 [Example I-41]	10 to 100 µM	
COc1ccc(N2CCN(C(=O)c3cc4c(-c5ccccc5OC)cc(C5=CCCN(C(=O)CCn6ccnn6)C5)c(F)c4[nH]3)CC2)cc1 [Example I-960]	< 0.1 µM	
COc1ccccc1-c1cc(C2=CCCN(C(=O)CCn3ccnn3)C2)c(F)c2[nH]c(C(=O)N3CCN(c4ccc(N5CCOCC5)c(F)c4)CC3)cc12 [Example I-1452]		0.1 to 1 µM
COc1cc(F)cnc1N1CCN(C(=O)c2cc3c(-c4cccnc4C4CC4)cc(C4=CCCN(C(=O)CCn5ccnn5)C4)c(F)c3[nH]2)CC1 [Example I-628]	< 0.1 µM	
COc1cccc(C)c1-c1cc(C2=CCCN(C(=O)CCn3ccnn3)C2)cc2cc(C(=O)N(C)C)oc12 [Example I-1646]		< 0.1 µM
CCc1nc(C)ccc1-c1cc(C(=O)N2Cc3cnn(C)c3C2)cc2c(F)c(C3=CCCN(C(=O)CCn4ccnn4)C3)n(CC3CC3)c12 [Example I-1229]		> 100 µM
COc1ccccc1-c1cc(C2=CCCN(C(=O)CCn3ccnn3)C2)c(F)c2[nH]c(C(=O)N(C)C3CC(O)C3)cc12 (stereo not drawn) [Example I-1376]		< 0.1 µM
COc1cc(N(C)C)ccc1-c1cc(C2=CCCN(C(=O)CCn3ccnn3)C2)c(F)c2[nH]c(C(=O)N3CCN(c4ccccc4OC)CC3)cc12 [Example I-610]	< 0.1 µM	
CN(C)C(=O)c1cc2cc(C3=CCCN(C(=O)CCn4ccnn4)C3)cc(C3CCNCC3)c2o1 [Example I-1048]	< 0.1 µM	
CN(C)C(=O)c1cc2ccc(C3=CCCN(C(=O)c4ccc5c(n4)OCCO5)C3)cc2[nH]1 [Example I-58]	10 to 100 µM	
CCc1cc(C)ncc1-c1cc(C2=CCCN(C(=O)CCn3cccn3)C2)c(F)c2[nH]c(C(=O)N3Cc4cnn(CC)c4C3)cc12 [Example I-537]	< 0.1 µM	
COc1cccnc1N1CCN(C(=O)c2cc3c(-c4nc(C)[nH]c4C)cc(C4=CCCN(C(=O)CCn5ccnn5)C4)c(F)c3[nH]2)CC1 [Example I-572]	< 0.1 µM	
CCn1ncc2c1CN(C(=O)c1cc3c(-c4ccncc4OC)cc(C4=CCCN(C(C)=O)C4)c(F)c3[nH]1)C2 [Example I-715]	10 to 100 µM	
CCc1ccncc1-c1cc(C(=O)N2Cc3cnn(C)c3C2)cc2cc(C3CCCN(S(N)(=O)=O)C3)n(CC3CC3)c12 (stereo not drawn) [Example I-1255]		10 to 100 µM
